# Earlier results as cited in patent publication US20240156960A1 (priority 2020, published 2024).
# Columns and labels:
# [1] = molecular target: SARS-CoV2 S; RBD (Severe acute respiratory syndrome coronavirus 2); conditions: epitope S
Molecule,Not Neutralising Vs (SARS-CoV1),Binds to [1]
"C019 (antibody, listed as Homo sapiens, V domains shown) VH: QVQLVQSGAEVKKPGASVKVSCKASGYTFTSYYMHWVRQAPGQGLEWMGIINPSGGSTSYAQKFQGRVTMTRDTSTSTVYMELSSLRSEDTAVYYCARVPREGTPGFDPWGQGTLVTVSS VL: [about 100 residues cut from this listing]","SARS-CoV1,",SARS-CoV2
"C031 (antibody, listed as Homo sapiens, V domains shown) VH: EVQLVESGGGLVQPGGSLRLSCAASGFTFSSYDMHWVRQATGKGLEWVSAIGTAGDTYYPGSVKGRFTISRENAKNSLYLQMNSLRAGDTAVYYCARVGYDSSGYSGWYFDLWGRGTLVTVSS VL: [about 100 residues cut from this listing]PLTFGGGTKVEIK","SARS-CoV1,",SARS-CoV2
